Out of some 310,000 compounds screened, about 18,000 (5.8%) were called active. This list was built around the results that the source calls inconclusive (neither active nor inactive); the mix of calls is not that of the screen. Calls follow the shape of the dose curve; as a rule, active = well fitted inhibition curve with a large enough effect; inconclusive = small, poorly fitted or top-dose-only effect, or another doubt; inactive = no such curve, though single readings can be large or run the other way. No potency is given beside an inconclusive call; the fits are too rough.
assay: Primary qHTS for delayed death inhibitors of the malarial parasite plastid, 48 hour incubation; conditions: P. falciparum luciferase growth in erythrocytes; series mostly up to 28.7 µM
Method in brief: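 Read-out is firefly luciferase luminescence from an integrated reporter in P. falciparum, so falling signal marks reduced parasite growth. Infected erythrocytes were at 2% hematocrit and 0.1% parasitemia (final) in Albumax-supplemented RPMI 1640.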
Potency is read from the fitted curve at half-maximal effect; tags tell the direction and shape of the fitted curve.

Compound	Potency
Oc1c(Cl)cc(Cl)cc1C=Nc1ccccc1N1CCCC1	inconclusive [inhibitor, single point]
CCOC(=O)c1sc(=S)n(-c2ccc(F)c(F)c2)c1N	inactive
CCOC(=O)CSc1nnc([C@H](Cc2ccccc2)NC(=O)OC(C)(C)C)o1	inconclusive [inhibitor, partial curve, poor fit]
O=C(OC1CCCCC1)c1ccc(NC(=O)c2ccco2)cc1	inconclusive [inhibitor, single point]
CCCCCC(/C=N/Nc1ccc(S(=O)(=O)N2CCOCC2)cc1[N+](=O)[O-])=C\c1ccccc1	inconclusive [inhibitor, single point]
O=C(CN1CCCc2ccccc21)NC(=O)NC1CCCCC1	inconclusive [inhibitor, single point]
CC(=O)Nc1ccc(-c2csc(NCCc3ccccc3)n2)cc1	inconclusive [inhibitor, single point]
Cc1nnc(SC(C(=O)c2ccccc2)c2ccccc2)[nH]c1=O (centres undefined)	inconclusive [inhibitor, single point]
COc1ccc(S(=O)(=O)n2nc(OC(C)=O)cc2N(C(C)=O)C(C)=O)cc1	inactive
CC1CCC(NC(=O)c2cc(S(=O)(=O)N(C)C)ccc2N2CCCC2)CC1 (centres undefined)	inconclusive [inhibitor, partial curve]
COc1ccccc1C1CCN(C(=O)c2cccc([N+](=O)[O-])c2)CC1	inactive
Cc1cc2c(cc(C(=O)NCc3cccnc3)n2Cc2ccc(Cl)cc2)o1	inconclusive [inhibitor, single point]
c1cncc(-c2nn3c(Cn4nnc5ccccc54)nnc3s2)c1	inconclusive [inhibitor, single point]
NC(=O)c1sc2nc(-c3ccccc3)ccc2c1N	inconclusive [inhibitor, single point]
Cc1cc(C)cc(NC(=O)C(OC(=O)c2sccc2C)c2ccccc2)c1 (centres undefined)	inconclusive [inhibitor, single point]
Cc1ccccc1-c1cc(C(=O)Nc2nc3c(s2)CCCC3)c2ccccc2n1	inconclusive [inhibitor, single point]
C/C(=N\NC(=O)c1nnn(-c2nonc2N)c1-c1ccc2c(c1)OCO2)c1ccc(C)cc1	inconclusive [inhibitor, single point]
O=C(/C=C/c1ccc(S(=O)(=O)N2CCOCC2)cc1)NC(=S)Nc1ccc(Cl)cc1Cl	inconclusive [inhibitor, partial curve, poor fit]
OCCNc1nc(NCCC2=CCCCC2)nc(N2CCOCC2)n1	inconclusive [inhibitor, single point]
N/C(CCS(=O)(=O)c1ccc(Cl)cc1)=N\OC(=O)c1ccc(Cl)cc1	inconclusive [inhibitor, single point]
CCOc1cc(C(=O)CSc2nnc(CNc3ccc(Cl)cc3)o2)ccc1NC(=O)CC	inconclusive [inhibitor, partial curve, poor fit]
CCOC(=O)C1(CCSC)NC(c2ccco2)C2C(=O)N(C)C(=O)C21 (centres undefined)	inactive

Compound	Potency
Cc1ccccc1NC(=O)c1cccc(C(F)(F)F)c1	inactive
Cc1cc(Cl)c(OCCOCCN2CCCC(C)C2)c(Br)c1 (centres undefined)	inconclusive [inhibitor, single point]
c1ccc(N2CCN(c3ccccc3)C2c2ccncc2)cc1	active: 13.1 µM
COc1ccc(-n2ccnc(SCC(=O)NCc3ccccc3Cl)c2=O)cc1	inactive
CCOc1ccccc1CN1CCC(n2nccc2NC(=O)CCc2ccccc2)CC1	inconclusive [inhibitor, single point]
CSc1cccc(NC(=S)N(CCN(C)C)C(C)c2ccncc2)c1 (centres undefined)	inconclusive [inhibitor, partial curve, poor fit]
CCOC(=O)c1ccccc1NC(=O)COC(=O)CSC(C)C(=O)Nc1cc(C)on1 (centres undefined)	inactive
COc1ccc(OC)c(C(C(=O)NCc2ccco2)N(C(=O)Cn2nnc3ccccc32)C(C)C)c1 (centres undefined)	inconclusive [inhibitor, partial curve]
CCOc1ccc(Nc2nc(N)c3ccccc3n2)cc1	inconclusive [inhibitor, full curve, poor fit]
COc1ccc(Nc2nccc(OC)c2C#N)cc1	inactive
COc1ccc(Nc2nc(NCCCN3CCOCC3)nc(N)c2[N+](=O)[O-])cc1	inconclusive [inhibitor, partial curve, poor fit]
Nc1cc(=O)[nH]c(SCC(=O)Nc2cc(S(=O)(=O)N3CCCCC3)ccc2Cl)n1	inconclusive [inhibitor, single point]
O=c1c(Cl)c(Cl)cnn1Cc1ccc(F)cc1	inactive
O=C(CCC(=O)N1CCOc2ccccc21)NC1CCCCCC1	inactive
O=C(CSc1nccn1-c1ccc(Cl)cc1)Nc1ccc2c(c1)OCO2	inconclusive [inhibitor, partial curve, poor fit]
CCc1c(C)nc2cc(-c3cc(OC)cc(OC)c3)nn2c1N1CCCC1	inconclusive [inhibitor, single point]
Cc1nn(CC(=O)OCC(=O)c2ccc(OC(F)F)cc2)c(C)c1[N+](=O)[O-]	inactive
CC(=O)OCCCCCCCCCCC[N+]1(C)CCCCC1	inconclusive [inhibitor, full curve]
COc1ccccc1CNC(=O)c1cc(-c2ccccc2)nn1Cc1cc(C)no1	inconclusive [inhibitor, single point]
COc1ccc(S(=O)(=O)N2CCCCCC2)cc1C(=O)N(C)Cc1cccs1	inactive
O=C(N/N=C/c1ccc([N+](=O)[O-])o1)c1ccncc1	active: 1.85 µM
Cc1cccc(C2Nc3cccc4cccc(c34)N2)c1	active: 4.65 µM

Reference: PubChem BioAssay AID504832 (National Center for Advancing Translational Sciences (NCATS), 2011)
